# Results as given in PubChem BioAssay AID2675 (National Center for Advancing Translational Sciences (NCATS), 2010).
# The campaign covered roughly 280,000 compounds. About 100 (0.036%) were called active. This list was built around the results that the source calls inconclusive (neither active nor inactive); the mix of calls is not that of the screen. The call rests on the fitted dose curve; in most records, active means well fitted inhibition curve with a large enough effect in the signal ratio, with a control signal flat (not every such curve was filed as active); inconclusive means small, poorly fitted or top-dose-only effect, or effect the other way, or a change in a side signal; inactive means no such curve, though single readings can be large or run the other way; the % refers to the signal ratio. Potencies of inconclusive entries are doubtful fits and often do not repeat. A note “side channel” means that the fit belongs to a control or component signal, not to the main read-out.
# Molecular target: Muscleblind-like protein 1 (Homo sapiens) (UniProt Q9NR56)
# Test: qHTS Assay for Inhibitors of MBNL1-poly(CUG) RNA binding
# Settings: TR-FRET MBNL1-His/biotin-(CUG)12 binding, 665/545 ratio; activity change, negative = inhibition: at 57.5 µM (top of the series)
# Procedure, shortened: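 MBNL1-His + Biotin-(CUG)12, cpd titration 92 nM–58 uM; Tb anti-His Ab 0.055 ng/ul, SA-XL665 5 nM (final); 60 min RT; ratiometric 665/545 nm, Ex 340 nm; normalized to buffer and full-complex controls.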
# On the % scale 0 is the no-effect control and ±100 the full control effect; potency means the concentration at half of the fitted maximal effect; tags describe the fitted curve by direction and shape or compound fluorescence and quenching.
# UniProt Q9NR56, sequence (Q9NR56 whole entry, looked up): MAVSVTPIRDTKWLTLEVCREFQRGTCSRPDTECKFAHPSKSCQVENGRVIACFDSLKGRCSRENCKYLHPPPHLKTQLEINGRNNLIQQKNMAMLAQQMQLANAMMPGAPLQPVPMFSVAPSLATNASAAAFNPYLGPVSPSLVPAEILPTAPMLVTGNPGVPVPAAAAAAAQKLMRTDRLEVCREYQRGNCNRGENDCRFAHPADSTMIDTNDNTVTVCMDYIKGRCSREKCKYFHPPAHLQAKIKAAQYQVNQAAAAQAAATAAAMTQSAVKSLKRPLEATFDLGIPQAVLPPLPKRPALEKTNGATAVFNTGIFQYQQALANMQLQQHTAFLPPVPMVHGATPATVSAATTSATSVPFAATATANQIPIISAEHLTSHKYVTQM
SMILES,Potency,"activity change, negative = inhibition"
CC(=O)OCCCN1C(=O)c2ccc(Br)cc2C1=O,"inconclusive: 20 µM [quencher, side channel, partial curve]",
CCOc1ccc(NC(=S)NN(C)C(=S)Nc2ccc(OCC)cc2)cc1,,inactive: -14.1% [at 11.5 µM]
COc1cccc(Cn2nc3c4cc(F)ccc4n(Cc4ccc(F)cc4)cc-3c2=O)c1,,inactive: 3.01%
Cc1cc(/C=c2\sc3nc4ccccc4n3c2=O)c(C)n1-c1ccc(C(=O)O)cc1,"inconclusive: 35.5 µM [quencher, side channel, single point]",
N/C(=N\OC(=O)c1cccc([N+](=O)[O-])c1)c1cccnc1,"inconclusive: 14.1 µM [quencher, side channel, partial curve]",
COc1ccc(C(CNC(=O)c2oc3ccc(F)cc3c2C)N2CCCCC2)cc1 (stereo not drawn),,inactive: -0.988%
CCOC(=O)N1CCN(c2c(N3CC=C(c4ccccc4)CC3)c(=O)c2=O)CC1,"inconclusive: 12.6 µM [quencher, side channel, partial curve]",
Cc1ccc(S(=O)(=O)Nn2c(O)c(C=C3N=c4ccccc4=N3)sc2=S)cc1,"inconclusive: 44.7 µM [quencher, side channel, single point]",
O=[N+]([O-])c1ccc(NC2CCCC2)cc1,"inconclusive: 0.158 µM [quencher, side channel, full curve]",
Cc1c(Br)c([N+](=O)[O-])nn1CCCC(=O)Nc1c(C)n(C)n(-c2ccccc2)c1=O,"inconclusive: 14.1 µM [quencher, side channel, partial curve]",
Cc1cccc(-n2c(O)c(C=Nc3ccccc3)c3ccccc3c2=O)n1,"inconclusive: 25.1 µM [quencher, partial curve]",
CCCC1c2ccc(C)n2CCN1C(=O)Nc1ccccc1Cl (stereo not drawn),"inconclusive: 25.1 µM [quencher, side channel, partial curve]",
COCCN1C(=O)c2ccc(C(=O)Nc3nccs3)cc2C1=O,"inconclusive: 12.6 µM [quencher, side channel, partial curve]",
O=C(O)c1ccccc1NS(=O)(=O)c1cccc(C(F)(F)F)c1,,inactive: -2.57%
CC(=O)COc1ccc2c3c(c(=O)oc2c1C)CCCCC3,,inactive: 2.92%
O=C(C[n+]1ccccn1)c1ccccc1,"inconclusive: 39.8 µM [quencher, side channel, single point]",
Cc1ccccc1N1CCN(C(=S)c2ccc(-c3cccc([N+](=O)[O-])c3)o2)CC1,"inconclusive: 22.4 µM [quencher, side channel, partial curve]",
CN(C(=O)Nc1ccc(Cl)cc1Cl)[C@H]1c2cc(Br)ccc2OC[C@H]1CO,,inactive: -4.62%
CN1CCN(C2=CC3=CC(=C(C#N)C#N)CCC3CC2)CC1 (stereo not drawn),"inconclusive: 6.31 µM [quencher, side channel, partial curve]",
COc1ccccc1CNC(=O)C1CCC(CNS(=O)(=O)c2cccc3cccnc23)CC1 (stereo not drawn),"inconclusive: 35.5 µM [fluorescent, side channel, single point]",
O=C(NCCCN1CCOCC1)c1cc(-c2ccc(O)cc2)on1,"inconclusive: 0.126 µM [quencher, side channel, full curve, poor fit]",

SMILES,Potency,"activity change, negative = inhibition"
O=C(Cc1ccc([N+](=O)[O-])cc1)Nc1ccc(C(=O)N2CCOCC2)cc1,"inconclusive: 31.6 µM [quencher, side channel, partial curve]",
N#CC1=C(N)Oc2c(ccc3cccnc23)C1c1ccccc1 (stereo not drawn),"inconclusive: 17.8 µM [quencher, side channel, single point]",
O=C(Nc1ccc([N+](=O)[O-])cn1)C1CC1,"inconclusive: 11.2 µM [quencher, side channel, partial curve]",
Cc1ccc(C2C(C(=O)c3cccs3)=C(O)C(=O)N2c2ccc(S(N)(=O)=O)cc2)cc1 (stereo not drawn),"inconclusive: 22.4 µM [quencher, side channel, single point]",
CC(C)c1ccc(/C=C2\SC(=O)N(CC(=O)NC3C=CS(=O)(=O)C3)C2=O)cc1 (stereo not drawn),"inconclusive: 17.8 µM [quencher, side channel, partial curve]",
O=C(O)c1ccccc1/C=N/Nc1ccc(S(=O)(=O)N2CCOCC2)cc1[N+](=O)[O-],"inconclusive: 2 µM [quencher, side channel, full curve]",
COc1ccc(NC(=O)CN2CCCC2)cc1,,inactive: -6.26%
O=S(=O)(/N=C/c1c(O)ccc2ccccc12)c1ccccc1,"inconclusive: 39.8 µM [quencher, side channel, single point]",
CN=C1c2c(-c3ccccc3)c3cc(OC)ccc3n2CCN1C,"inconclusive: 28.2 µM [quencher, side channel, single point]",
Cn1c(=O)c2c(ncn2CC(=O)N/N=C/C=C/c2ccccc2)n(C)c1=O,,inconclusive: 26.4% [phenotype inactive]
CCN1C(=O)/C(=C/c2cn(C)nc2C)SC1=S,"inconclusive: 7.94 µM [quencher, side channel, partial curve]",
CC(=O)Nc1ccc2ccc3cccc4ccc1c2c34,"inconclusive: 0.447 µM [quencher, side channel, partial curve, poor fit]",
COc1ccc(NC(=O)c2ccco2)cc1NC(=O)c1ccccc1[N+](=O)[O-],"inconclusive: 12.6 µM [quencher, partial curve]",
Cc1ccc([N+](=O)[O-])cc1S(=O)(=O)NCCc1c(C)[nH]c2ccccc12,"inconclusive: 8.91 µM [quencher, side channel, full curve]",
O=C(COc1ccccc1Cl)c1ccc2c(c1)CCCC2,,inactive: 7.22%
O=[N+]([O-])c1ccc(NCc2ccccc2N2CCC(CO)CC2)nc1,"inconclusive: 17.8 µM [quencher, side channel, partial curve]",
CCCc1cc(=O)[nH]c(SCC(=O)Nc2ccc3c(c2)CCC3)n1,"inconclusive: 6.31 µM [inhibitor, single point]",
CCN(CC)CCOC(=O)c1ccc(NC(=O)CCCN2C(=O)/C(=C/c3cccs3)SC2=S)cc1,"inconclusive: 15.8 µM [quencher, side channel, partial curve]",
COc1ccccc1NS(=O)(=O)c1ccc(N/N=C/c2ccccc2OCC(=O)O)c([N+](=O)[O-])c1,"inconclusive: 15.8 µM [quencher, side channel, partial curve]",
COc1ccc(C2=Nn3c(nnc3-c3cc(C)[nH]n3)SC2)cc1,,inactive: 2.01%
CN(CC(=O)Nc1cc(Cl)cc(Cl)c1)Cc1cccs1,,inactive: -12.7%

SMILES,Potency,"activity change, negative = inhibition"
O=C(CNC(=O)c1ccccc1F)OCC(=O)c1ccc(Cl)s1,"inconclusive: 17.8 µM [quencher, side channel, single point]",
O=C(C1=C(O)C(=O)N(CCc2ccccc2)C1c1cccnc1)c1ccco1 (stereo not drawn),"inconclusive: 14.1 µM [quencher, side channel, partial curve]",
COc1cccc(NC(=O)c2cc(=O)c3ccccc3o2)c1,"inconclusive: 15.8 µM [quencher, side channel, partial curve]",
O=C(/C=C/c1ccc([N+](=O)[O-])cc1)NC1CC2CCC1C2 (stereo not drawn),"inconclusive: 12.6 µM [quencher, side channel, partial curve]",
Cn1nnc(NC(=S)NC(=O)c2ccco2)n1,,inactive: -24.9%
CC(C)(C)NC(=O)Nc1ccc2nccnc2c1,"inconclusive: 15.8 µM [quencher, side channel, partial curve]",
COc1c(C)cc(Br)cc1C(=O)NC(=S)NCc1ccco1,,inactive: -6.02%
CCc1nc2nc(C)c(NS(=O)(=O)c3ccc(Br)s3)c(=O)n2[nH]1,"inconclusive: 15.8 µM [quencher, partial curve]",
Cc1ccc(OCC(=O)NNC(=O)C(C)Sc2ncnc3sc(C)c(C)c23)cc1 (stereo not drawn),"inconclusive: 1.78 µM [fluorescent, side channel, partial curve]",
COCCN(C(=S)Nc1ccc(C)c(C)c1)C(C)c1ccco1 (stereo not drawn),,inactive: -5.17%
Cc1ccc2cc(CN(Cc3ccco3)C(=S)NCC3CCCO3)c(=O)[nH]c2c1C (stereo not drawn),,inactive: 1.1%
CCNC(=S)NS(=O)(=O)c1ccc(C)cc1,,inactive: -3.7%
CC(C)C(=O)Nc1cccc2nsnc12,"inconclusive: 15.8 µM [quencher, side channel, partial curve]",
CCOc1ccc2ccc(OCC)c(/C=N/n3cnnc3)c2c1,"inconclusive: 28.2 µM [quencher, side channel, single point]",
CC(=O)NCCOc1ccc(C(=O)O)cc1,,inactive: -0.97%
O=C(NCc1cccs1)c1nc(-c2cccs2)no1,,inactive: -4.22%
CC(=O)Oc1c(I)cc(I)cc1C(=O)Nc1ccc(Cl)cc1,,inactive: 12.5%
CCN1CCCC1CNC(=O)c1ccc2c(c1)NC(=O)/C(=C\c1ccc(C)cc1)S2 (stereo not drawn),"inconclusive: 25.1 µM [quencher, side channel, single point]",
CCOC(=O)C1CCCN(c2c(N3CCN(c4ccccn4)CC3)c(=O)c2=O)C1 (stereo not drawn),"inconclusive: 0.794 µM [quencher, side channel, single point]",
Nc1nc(Sc2ccc(C(F)(F)F)cc2[N+](=O)[O-])n[nH]1,"inconclusive: 14.1 µM [quencher, side channel, partial curve]",
O=C(NC1CCCc2ccccc21)c1ccc2c(c1)OCO2 (stereo not drawn),"inconclusive: 28.2 µM [fluorescent, side channel, single point]",
